Measured values as given in PubChem BioAssay AID1159614 (National Center for Advancing Translational Sciences (NCATS), 2016).
Hit rate of the full screen: of about 45,000 compounds, about 65 (0.1%) were called active. Calls follow the shape of the dose curve; as a rule, active = well fitted activation curve with a large enough effect; inconclusive = small, poorly fitted or top-dose-only effect; inactive = no such curve, though single readings can be large or run the other way. The list shows a part of the results.

Each compound was assayed against Galactocerebrosidase (Homo sapiens) (UniProt P54803) (assay: A Novel Cell-Based Assay to Identify Small Molecules for B -Galactocerebrosidase). Conditions: 145M-Twi-hGALC-G270D cells (Twitcher mouse brain line with human GALC G270D), HMU-beta-Gal fluorescence, 48 h; series mostly up to 57.5 µM; activation: at the top concentration.
Summary of the method: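 Brain-derived Twitcher mouse 145M-Twi cells stably expressing human GALC-G270D or wild-type GALC, treated live, then residual GALC activity read by fluorescence of HMU-b-Gal substrate (0.1 mM final) in citrate-phosphate buffer pH 5.2 with sodium taurocholate. Signal increase indicates enhancement.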
Also: 0% is about no effect; nearly all actives have a fitted effect of over 65% in size.

UniProt P54803, sequence (P54803 whole entry, looked up): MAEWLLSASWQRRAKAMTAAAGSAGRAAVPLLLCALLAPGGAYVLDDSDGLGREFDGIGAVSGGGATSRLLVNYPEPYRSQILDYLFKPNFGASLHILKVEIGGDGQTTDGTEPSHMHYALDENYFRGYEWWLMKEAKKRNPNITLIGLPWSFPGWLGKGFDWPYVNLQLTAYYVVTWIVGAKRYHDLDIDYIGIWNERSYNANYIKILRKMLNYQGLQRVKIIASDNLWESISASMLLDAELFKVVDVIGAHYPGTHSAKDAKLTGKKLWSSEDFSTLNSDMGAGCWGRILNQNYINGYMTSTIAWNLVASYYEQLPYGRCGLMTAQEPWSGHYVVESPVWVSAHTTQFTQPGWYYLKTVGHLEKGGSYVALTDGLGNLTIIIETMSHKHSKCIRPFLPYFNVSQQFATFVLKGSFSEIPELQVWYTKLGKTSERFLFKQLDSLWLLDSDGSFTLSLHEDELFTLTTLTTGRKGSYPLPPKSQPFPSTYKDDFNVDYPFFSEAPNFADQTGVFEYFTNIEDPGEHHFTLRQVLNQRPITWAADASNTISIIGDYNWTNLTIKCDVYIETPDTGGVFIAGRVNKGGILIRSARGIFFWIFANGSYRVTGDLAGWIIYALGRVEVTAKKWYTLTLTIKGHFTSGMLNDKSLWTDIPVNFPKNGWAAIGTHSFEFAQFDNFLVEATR

activation, inactive:
CCOc1cccc2sc(N(Cc3cccnc3)C(=O)c3ccco3)nc12 -16.3%
COc1cc(OC)c(NC(=O)Nc2nnc(N(C)C3CCCCC3)s2)cc1Cl -7.23%
Cc1ccc(N2CC(NC(=O)Cc3cccs3)CC2=O)cc1 (stereo not drawn) -10.4%
CC1(C(=O)Nc2cccc(C(F)(F)F)c2)Cc2ccccc2C(=O)O1 (stereo not drawn) -7.76%
Cc1c(C(=O)Nc2ccc(Br)cc2F)oc2ccc(S(=O)(=O)N3CCCCC3)cc12 -20.7%
CC1CCN(CC(=O)N2CCCc3c2c(=O)oc2ccc(OCc4ccccc4)cc32)CC1 -33.4%
CC(=O)c1ccc(NC(=O)CN(C)S(=O)(=O)c2cc3c(cc2C)NC(=O)CO3)cc1 -6.12%
COc1ccccc1-c1c(C(F)(F)F)oc2c(CN3CCCCC3C)c(O)ccc2c1=O (stereo not drawn) 6.7%
Cc1ccccc1CN1C(=O)c2ccccc2Sc2ccc(C(=O)N3CCOCC3)cc21 -18.6%
Cc1cc(F)ccc1NC(=O)CCS(=O)(=O)c1cccc2nsnc12 0.481%
O=C(Nc1ccc2oc(-c3cccc4c(Br)cccc34)nc2c1)c1ccc(Br)cc1 -13.1%
CC(=O)c1[nH]c(C)c(C(=O)NCc2ccc(Cl)cc2)c1C -38.1%
Cc1cccc(-c2nc(-c3ccc4c(c3)[nH]c(=O)n4C)no2)c1 -6.75%
CCN1C(=O)c2ccccc2S(=O)c2ccc(C(=O)N3CCN(c4ccc(F)cc4)CC3)cc21 (stereo not drawn) -3.35%
Cc1ccc(S(=O)(=O)N2CCC(C(=O)Nc3cc(C)ccc3C)CC2)cc1 -12.4%
CCCN(CCC)CCCNC(=O)c1cc2c(-c3ccc(Cl)cc3)nn(C)c2s1 -13.7%
Cc1cccc(NC(=O)CSc2nc3c(oc4ccccc43)c(=O)n2-c2ccccc2)c1C -9.04%
CCOC(=O)c1[nH]c(C)c(CCC(=O)NCc2cccc(Cl)c2)c1C -5.17%
O=C(CSc1c2c(nc3ccccc13)CCC2)Nc1ccc(F)cc1F 2.78%
CCN1CCCC(OC(=O)C(c2ccccc2)c2ccccc2)C1 (stereo not drawn) -21%
COc1cc(-c2cc3n(C)c(C)c(CCC(=O)Nc4ccc(F)cc4)c(=O)n3n2)cc(OC)c1OC -11.9%
COc1ccc(Cn2c(=O)c3oc4ccccc4c3n(Cc3ccccc3)c2=O)cc1 -11.2%
COC(=O)c1ccc([C@@H]2Nc3c(cccc3C(F)(F)F)[C@@H]3C=CC[C@@H]32)cc1 -18.5%
Cc1ccc(NC(=O)CSc2nc3c(c(=O)[nH]2)CN(Cc2ccccc2)CC3)cc1Cl -0.835%
CC(=O)N1c2ccccc2C(=O)C1N1CCN(c2cccc(C)c2C)CC1 (stereo not drawn) -11.6%
Nc1nonc1-c1nc2ccccc2n1Cc1ccc(Br)cc1 -13.9%
CC1(C)CC(=O)c2cc(C(=O)Nc3ccc(Cl)cc3)c(=O)[nH]c2C1 -13.2%
Cc1ccc(NC(=O)C2=CC(c3cccs3)=NS(=O)(=O)N2C)cc1 -12.6%
CC(CNC(=O)c1sc2ncccc2c1-n1cccc1)c1ccccc1 (stereo not drawn) -17.2%
CC(C)(Oc1ccc(Cl)cc1)C(=O)Nc1cccc(-c2cn3cccnc3n2)c1 -11.7%
O=C(CC(c1cccs1)N1Cc2ccccc2C1=O)Nc1ccccc1F (stereo not drawn) -16%
Cc1ccc(-c2nn(CCC(=O)Nc3ccc(Cl)c(Cl)c3)c(=O)c3ccccc23)cc1 2.11%
CCOc1cc(C2C(C(N)=O)=C(C)Nc3ncnn32)cc(Br)c1O (stereo not drawn) -1.67%
COc1ccc(-c2nc(S(=O)(=O)c3ccc(Cl)cc3)c(N3CCCCCC3)o2)cc1 -14%
Cc1ccc(C(=O)NCCSc2c(C)[nH]c3ccccc23)cc1C -12.2%
Cc1ccc(CSC2=Nc3ccccc3C3=NC(CCC(=O)NCCc4ccccc4)C(=O)N23)cc1 (stereo not drawn) -18.1%
COC(=O)c1cc2occc2n1Cc1ccc(F)cc1Cl -11.1%
Cc1ccc(NC(=O)CN2C(=O)CSc3ccc(S(=O)(=O)N(C)C)cc32)cc1C -28.7%
O=C(Oc1ccccc1C(=O)O)c1ccccc1O 1.35%
Cc1ccc(Cl)cc1-n1c(=O)c2sc3ccccc3c2n(CC(=O)NC2CCCC2)c1=O 0.464%
Oc1c(C(c2ccc(F)cc2)N2CCCC2)sc2nc(-c3ccco3)nn12 (stereo not drawn) -7.76%
Cc1ccc(S(=O)(=O)c2cn(C)c3cc(N4CCOCC4)c(F)cc3c2=O)c(C)c1 -10.6%
Cc1ccc(CCNC(=O)C2COc3ccccc3C2)cc1 (stereo not drawn) -21%
Cc1cc(C)n(-c2nc3cc(Cl)ccc3nc2N2CCN(c3cccc(C)c3C)CC2)n1 -5.88%
Cc1ccc(CCNC(=O)Cn2ncc3c([nH]c4ccccc43)c2=O)cc1 -8.43%
COc1ccccc1CNS(=O)(=O)c1c(C(=O)N2CCC(C)CC2)c(C)n(C)c1C -3.85%
Cc1ccc2c(c1)-c1onc(C(=O)N3CCN(c4cc(C)ccc4C)CC3)c1CO2 -6.67%
O=C(O)c1ccc(S(=O)(=O)N(Cl)Cl)cc1 -29.1%
COC(=O)c1ccccc1NC(=O)CSc1cc(-c2ccccc2)nc(C)n1 -17.7%
Clc1ccc(-c2ccc(CNCCSc3nnnn3-c3ccccc3)o2)cc1 -14.8%
O=C(C1CCCN(S(=O)(=O)c2cccc3nonc23)C1)N1CCN(c2ccccc2F)CC1 (stereo not drawn) -9.09%
O=C(CCn1c(=O)c2cccn2c2ccc(F)cc21)NCCc1ccc(Cl)cc1 5.74%
COc1ccc(NC(=O)N2CCC(CN3CCCC3)CC2)c(OC)c1 -10.2%
CCCCCN1C(C(=O)c2ccccc2)=C(NC(=O)c2ccc(OC)c(OC)c2)c2ccccc2S1(=O)=O -17.7%
COc1ccc(C)cc1NC(=O)CSc1nc(=O)n(Cc2cccnc2)c2c1CCC2 -22.8%
COc1ccc(OC)c(C(=O)CN2C(=O)N(c3cc(C)cc(C)c3)S(=O)(=O)c3ccccc32)c1 -13.7%
Clc1cccc(-n2ncc3c(NCCC4=CCCCC4)ncnc32)c1 -1.87%
Clc1ccccc1-c1nc(-c2ccncc2)no1 -17.1%
CCN(CC)S(=O)(=O)c1nnc(NC(=O)COc2ccccc2)s1 -3.82%
COc1ccc(C2(CNC(=O)C(=O)Nc3ccc(C)c(Cl)c3)CCCC2)cc1OC -27.5%
COc1c(C)c2c(c(O)c1C/C=C(\C)CCC(=O)O)C(=O)OC2 2.46%
CC(=O)c1ccc(N2C(=O)N(Cc3ccc(F)cc3)c3ccccc3S2(=O)=O)cc1 0.0981%
CCN1CCN(c2oc(-c3ccc(COc4ccc(OC)cc4)o3)nc2C#N)CC1 -16.4%
CC(C)(C)OC(=O)N1CCC(c2c(C(=O)NCCN3CCOCC3)cnn2-c2cccc(F)c2)CC1 -14.1%
O=C(CSc1nc2c(c(=O)[nH]1)CCC2)Nc1cccc(O)c1 -14.4%
CC(NC(=O)c1cccc(Nc2nc3ccccc3n3nnnc23)c1)c1ccccc1 (stereo not drawn) -14.6%
COc1ccc(OC)c(NC(=O)Nc2cccc(OCc3cc(=O)n4cc(C)ccc4n3)c2)c1 -7.9%
CCCCN1C(=O)C(NC(=O)c2ccc(C(C)(C)C)cc2)(C(F)(F)F)C(C(=O)OC)=C1C (stereo not drawn) -12.4%
COc1ccc(NC(=O)C2CCN(c3nc4ccccc4[nH]3)CC2)cc1OC 2.61%
Cc1ccc(NC(=O)CSc2nnc(C)s2)c(C)c1 -3.98%
Cc1cc(O)c(C(c2ccc(F)cc2)N2CCN(c3ccccc3)CC2)c(=O)n1Cc1ccco1 (stereo not drawn) -5.58%
Cc1ccc(S(=O)(=O)NCCc2nnc3ccc(SCc4cccc(F)c4)nn23)cc1 -9.78%
CCn1c(=O)c2sccc2n2c(CCCC(=O)Nc3ccc(C)cc3)nnc12 -10.9%
Cc1ccc(N2CCN(c3ncnc4onc(-c5ccc(F)cc5)c34)CC2)c(C)c1 -10.3%
COc1cc(NC(=O)c2c(C)nn(-c3ccc(F)cc3)c2-n2cccc2)cc(OC)c1 -14.2%
COc1ccc(-n2nnnc2C2CCN(S(=O)(=O)c3cc(Cl)ccc3OC)CC2)cc1 -12%
Cc1ccc(Nc2c(-c3ccco3)nc3ccc(C)cn23)cc1 -16.7%
CCN(C(=O)c1cc2c(=O)oc3ccccc3c2s1)c1cccc(C(F)(F)F)c1 10.7%
CCOc1ccc(OCC)c(Nc2nc3ccccc3n3nnnc23)c1 -3.24%
COc1ccc(-c2nc3ccccc3o2)cc1NC(=O)c1ccc(-c2ccc(C)c(Cl)c2)o1 0.663%
COc1ccc(CC(=O)Nc2c(C(=O)N3CCN(c4ccccc4F)CC3)oc3ccccc23)cc1OC -13.8%
COc1ccccc1Nc1ncc2c(n1)CCN(CC(C)C)C2 -5.34%
COc1ccc(NC(=O)c2c(NC(=O)c3cccc(C)c3)sc3c2CCC3)cc1 -7.14%
COc1cccc(CNC(=O)c2ccc3oc(=O)n(Cc4ccccc4)c3c2)c1 -3%
COCCNC(=O)c1ccc2c(c1)NC(=O)C(CS(=O)(=O)Cc1ccc(F)cc1Cl)N2 (stereo not drawn) -0.589%
O=C1C2=C(Nc3ccccc3SC2c2ccc(C(F)(F)F)cc2)c2ccccc21 (stereo not drawn) -7.07%
Cc1ccccc1CNC(=O)CCCn1ncn2c(cc3occc32)c1=O -7.87%
Cc1cccc(-n2nnc(-c3nc(-c4cccs4)no3)c2N)c1C -10.6%
O=C(CN1C=NS(=O)(=O)c2ccccc21)Nc1ccc(Br)cc1 -17.5%
COc1ccc(NC(=O)CSC2=Nc3ccccc3C3=NC(Cc4ccccc4)C(=O)N23)cc1 (stereo not drawn) -29.8%
Cc1ccc(-n2c(=O)c3ccc(C(=O)NCc4ccccc4Cl)cc3n(CC(=O)Nc3ccc(C)cc3C)c2=O)cc1 -22.6%
Cc1cc(C)cc(C(=O)n2nc(C)c(S(=O)(=O)N3CCOCC3)c2C)c1 11.2%
O=C(CSc1ncc2c(n1)-c1ccccc1N(Cc1ccc(F)cc1)S2(=O)=O)NCCc1ccccc1 -9.13%
COc1cc(NC(=O)CN(c2cc(C)cc(C)c2)S(=O)(=O)c2c(C)[nH]c(=O)[nH]c2=O)cc(OC)c1 -3.6%
C#CC(C)(CC)NC(=O)Cn1nnc(-c2ccc(OCc3c(F)cccc3Cl)cc2)n1 (stereo not drawn) -18.1%
Cc1cn2c(=O)cc(COc3ccc(NC(=O)COc4ccccc4)cc3)nc2s1 4.64%
CCOc1ccc(-c2nc3ccccc3c(=O)o2)cc1 -14.9%
CCOC(=O)c1cccc(NC(=O)[C@H](CSCc2ccccc2)N2Cc3ccccc3C2=O)c1 -4.54%
